In one assay the test system is HSkMC. The assay is described as follows: cytotoxicity call (relative viability < 0.9). The conditions noted are these: 10 µM.
For the next assay, the system named is HepG2. The assay is described as follows: cytotoxicity call (relative viability < 0.9). The conditions noted are these: 10 µM.
Another assay deals with S. aureus RN4220. The assay is described as follows: growth inhibition call (relative growth <= 0.2). The conditions noted are these: 50 µM.

The other results are listed elsewhere or left out.

Turning to `CC(C)[C@@H](CO)N1C(=O)[C@@H]2[C@H]3C(=O)OCCC/C=C\[C@H]3O[C@]23C=CCN(CCN2CCOCC2)C(=O)[C@@H]13`, the cytotoxicity call in the assay with HSkMC and in the assay on HepG2 was “inactive” in each case. The growth inhibition call with S. aureus RN4220 is “inactive”.

With `C[C@@H]1CN([C@@H](C)CO)C(=O)c2cccc(NC(=O)C3CC3)c2O[C@@H]1CN(C)Cc1ccc(-c2ccccc2)cc1`, the cytotoxicity call in the assay with HSkMC and with HepG2 was “inactive” in each case. Besides, in the assay on S. aureus RN4220, the growth inhibition call was “inactive”.

In the case of `COc1ccc(S(=O)(=O)N(C)C[C@@H]2Oc3cc(C#CC4CCCC4)ccc3S(=O)(=O)N([C@@H](C)CO)C[C@H]2C)cc1`, the cytotoxicity call in the assay with HSkMC and in the assay on HepG2 was “inactive” each time. Besides, the growth inhibition call in the assay with S. aureus RN4220 is “inactive”.

For the molecule `CN1CCN(C(=O)C[C@@H]2C=C[C@H](NS(=O)(=O)c3cccc(F)c3)[C@@H](CO)O2)CC1`, the cytotoxicity call in the assay on HSkMC and in the assay on HepG2 was “inactive” throughout. In addition, the growth inhibition call in the assay on S. aureus RN4220 is “inactive”.

For the molecule `COc1ccc(NC(=O)Nc2ccc3c(c2)CC(=O)N([C@@H](C)CO)C[C@H](C)[C@H](CN(C)Cc2ccc(-c4ccccc4)cc2)O3)cc1`, in the assay on HSkMC, the cytotoxicity call is “inactive”. For the same molecule, in the assay on HepG2, the cytotoxicity call was “active”. Besides, the growth inhibition call in the assay with S. aureus RN4220 was “inactive”.

Take `Cc1cc(C)c(NC(=O)[C@@H](N)Cc2ccccc2)c(Cl)c1`: the cytotoxicity call with HSkMC is “inactive”. Besides, the cytotoxicity call in the assay on HepG2 was “active”. In addition, in the assay with S. aureus RN4220, the growth inhibition call was “inactive”.

For `O=c1[nH]cnc2[nH]ncc12`, the cytotoxicity call with HSkMC and in the assay with HepG2 was “inactive” throughout. The growth inhibition call with S. aureus RN4220 was “inactive”.

As for `C[C@@H]1CN([C@@H](C)CO)C(=O)c2cccc(NC(=O)Nc3ccc(C(F)(F)F)cc3)c2O[C@@H]1CN(C)Cc1ccc(C(F)(F)F)cc1`, the cytotoxicity call with HSkMC is “active”. Besides, the cytotoxicity call in the assay on HepG2 is “inactive”. Moreover, the growth inhibition call in the assay on S. aureus RN4220 is “inactive”.

With `C[C@H]1CN([C@@H](C)CO)C(=O)c2cccc(NC(=O)Nc3cccc4ccccc34)c2O[C@H]1CN(C)CC1CC1`, the cytotoxicity call in the assay on HSkMC and with HepG2 was “inactive” in each case. Moreover, the growth inhibition call in the assay with S. aureus RN4220 was “inactive”.

Consider `COc1cc(OC)nc(N=CNO)n1`, for which the cytotoxicity call with HSkMC and with HepG2 was “inactive” in each case. Moreover, the growth inhibition call with S. aureus RN4220 was “inactive”.

With `C[C@@H]1CCCCO[C@@H](CN(C)Cc2ccc(C(=O)O)cc2)[C@H](C)CN([C@@H](C)CO)C(=O)c2cc(NS(=O)(=O)c3ccccc3)ccc2O1`, the cytotoxicity call with HSkMC and in the assay with HepG2 was “inactive” each time. Further, the growth inhibition call in the assay on S. aureus RN4220 was “inactive”.

On to `CCCC#Cc1cnc2c(c1)C(=O)N([C@@H](C)CO)C[C@@H](C)[C@@H](CN(C)C(=O)c1ccc3c(c1)OCO3)O2`, for which the cytotoxicity call in the assay with HSkMC and in the assay on HepG2 was “inactive” throughout. Moreover, the growth inhibition call with S. aureus RN4220 was “inactive”.

For the molecule `CC(C)(C)[S@](=O)N1Cc2cc(C(=O)NCCc3ccncc3)nc(-c3cccc(-c4cccc(C#N)c4)c3)c2[C@@H]1CCO`, the cytotoxicity call with HSkMC and in the assay on HepG2 was “inactive” in each case. In the assay on S. aureus RN4220, the growth inhibition call was “inactive”.

Turning to `C[C@@H]1CCCCO[C@H](CN(C)Cc2ccc(C(=O)O)cc2)[C@H](C)CN([C@H](C)CO)C(=O)c2cc(NC(=O)c3ccccc3)ccc2O1`, the cytotoxicity call with HSkMC and with HepG2 was “inactive” each time. In addition, the growth inhibition call in the assay on S. aureus RN4220 was “inactive”.

Turning to `C[C@@H]1CN([C@H](C)CO)C(=O)Cc2cc(NC(=O)Cc3cn(C)c4ccccc34)ccc2O[C@@H]1CN(C)Cc1ccc(Oc2ccccc2)cc1`, the cytotoxicity call in the assay with HSkMC is “inactive”. In addition, in the assay with HepG2, the cytotoxicity call was “active”. In the assay on S. aureus RN4220, the growth inhibition call was “inactive”.

On to `Cc1cncc2cccc(S(=O)(=O)NCCN(C/C=C/c3ccc(Br)cc3)C/C=C/c3ccc(Br)cc3)c12`, for which the cytotoxicity call with HSkMC and in the assay on HepG2 was “inactive” throughout. In addition, the growth inhibition call in the assay on S. aureus RN4220 is “inactive”.

As for `C[C@@H]1CCCCO[C@H](CN(C)Cc2ccc(C(=O)O)cc2)[C@@H](C)CN([C@@H](C)CO)C(=O)c2cc(NC(=O)Nc3ccc4c(c3)OCO4)ccc2O1`, the cytotoxicity call in the assay on HSkMC and with HepG2 was “inactive” each time. In addition, in the assay with S. aureus RN4220, the growth inhibition call is “inactive”.

For `Cc1ccc(S(=O)(=O)Nc2ccc3c(c2)C(=O)N([C@@H](C)CO)C[C@H](C)[C@H](CN(C)Cc2ccc(C(F)(F)F)cc2)OCCCC[C@H](C)O3)cc1`, the cytotoxicity call in the assay on HSkMC and in the assay with HepG2 was “inactive” throughout. In the assay on S. aureus RN4220, the growth inhibition call was “inactive”.

With `C[C@H]1CCCCO[C@H](CN(C)S(=O)(=O)c2cccs2)[C@@H](C)CN([C@@H](C)CO)C(=O)c2cc(NC(=O)Nc3ccc(C(F)(F)F)cc3)ccc2O1`, the cytotoxicity call in the assay with HSkMC and with HepG2 was “inactive” each time. In the assay with S. aureus RN4220, the growth inhibition call was “inactive”.

As for `O=C(C[C@H]1CC[C@@H](NC(=O)CN2CCOCC2)[C@H](CO)O1)NC1CCC1`, the cytotoxicity call with HSkMC and in the assay on HepG2 was “inactive” throughout. Also, in the assay with S. aureus RN4220, the growth inhibition call was “inactive”.

For `C[C@H]1CN([C@@H](C)CO)C(=O)c2cccc(NS(=O)(=O)c3ccc(Cl)cc3)c2O[C@H]1CN(C)S(C)(=O)=O`, the cytotoxicity call with HSkMC and in the assay on HepG2 was “inactive” each time. The growth inhibition call with S. aureus RN4220 was “inactive”.

For `COc1ccc(-c2cnc3c(c2)C(=O)N([C@H](C)CO)C[C@@H](C)[C@@H](CN(C)C(=O)Cc2ccccn2)O3)cc1`, the cytotoxicity call in the assay with HSkMC and in the assay with HepG2 was “inactive” in each case. Besides, in the assay on S. aureus RN4220, the growth inhibition call is “inactive”.

As for `CC(=O)O[C@H]1CC[C@]2(C)[C@H]3CC[C@@]4(C)[C@H](c5ccoc5)OC(=O)[C@H]5O[C@]54[C@]3(C)[C@H](OC(C)=O)C[C@H]2C1(C)C`, the cytotoxicity call with HSkMC and with HepG2 was “inactive” each time. For the same molecule, the growth inhibition call with S. aureus RN4220 is “inactive”.

Turning to `CC(=O)C1CCC2C3CC=C4CC(O)CCC4(C)C3CCC12C` (stereo unspecified), the cytotoxicity call with HSkMC and in the assay with HepG2 was “inactive” throughout. Moreover, in the assay with S. aureus RN4220, the growth inhibition call is “inactive”.

For the molecule `C[C@H]1CN([C@@H](C)CO)C(=O)c2cccc(NS(=O)(=O)c3cn(C)cn3)c2O[C@H]1CN(C)S(=O)(=O)c1ccccc1`, the cytotoxicity call in the assay on HSkMC (human skeletal muscle cells) and in the assay with HepG2 was “inactive” in each case. Besides, the growth inhibition call with S. aureus RN4220 was “inactive”.

Consider `Cc1ccc(S(=O)(=O)Nc2ccc3c(c2)CC(=O)N([C@@H](C)CO)C[C@H](C)[C@@H](CN(C)S(=O)(=O)c2cccs2)O3)cc1`, for which the cytotoxicity call with HSkMC and in the assay with HepG2 was “inactive” throughout. Besides, in the assay with S. aureus RN4220, the growth inhibition call is “inactive”.

As for `CC(C)NC(=O)[C@@]1(c2ccc([N+](=O)[O-])cc2)CC(=O)N(CC23CC4CC(CC(C4)C2)C3)[C@@H]1c1ccc(CO)cc1`, the cytotoxicity call in the assay with HSkMC and in the assay on HepG2 was “inactive” throughout. Moreover, the growth inhibition call in the assay with S. aureus RN4220 was “inactive”.

Source of the values: the antibiotic and cytotoxicity screens of Wong et al. (2023).
